About 12,000 (3.5%) of roughly 340,000 compounds were called active. Inconclusive results, whose numbers are uncertain, are shown with a selection of clear calls. The call rests on the fitted dose curve; in most records, active means well fitted inhibition curve with a large enough effect; inconclusive means small, poorly fitted or top-dose-only effect, or another doubt; inactive means no such curve, though single readings can be large or run the other way. Potencies of inconclusive entries are left out as doubtful fits.
Test: qHTS Assay for Inhibitors of Hepatitis C Virus (HCV)
Details: Huh7.5.1 HCVcc-Cre (HCVcc is cell-culture hepatitis C virus) infection, luciferase reporter, 44 h; activity change, negative = inhibition: at 41.8 µM (top of the series) unless noted
Summary of the method: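 Antiviral activity was scored by luciferase reporter output from cells infected with HCVcc-Cre (~0.5 moi) in presence of compound, 44 h infection period, cells seeded 1,000/well 4 h prior.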
On the % scale 0 is the no-effect control and ±100 the full control effect; potency means the concentration at half of the fitted maximal effect; tags describe the fitted curve by direction and shape.

Structure (SMILES) | Potency | activity change, negative = inhibition
COc1ccc(C(=O)NC2CC(C)(C)Cc3c2cnn3-c2ccccc2C)c(OC)c1OC (stereo unspecified) | inconclusive [inhibitor, single point] | 
Cc1ccc(NC(=S)NNc2ncc(C(F)(F)F)cc2Cl)cc1 | inconclusive [inhibitor, single point] | 
Nc1cccc2[nH]c(=O)c3ccccc3c12 | inconclusive [inhibitor, partial curve] | 
CCC(=O)Nc1ccc(Br)cn1 |  | inactive: 9.52%
Cc1cc(Cl)n2c(nc3ccccc32)c1C#N | inconclusive [inhibitor, single point] | 
CCCNCC(O)COc1ccccc1C(=O)CCc1ccccc1 (stereo unspecified) | inactive | 
COc1ccc(-c2c(S(=O)(=O)c3ccccc3)cnn2-c2ccccc2)cc1 |  | inactive: -18.7%
O=C(CN1C2CCCC1CC(NC(=O)C1CCCCC1)C2)Nc1ccccc1C(F)(F)F (stereo unspecified) | active: 10 µM | 
CC(=O)c1ccc(-c2ccc(-c3cc(=O)oc4c(C(C)C)ccc(C)c34)cc2)cc1 |  | inactive: -11.2%
Oc1cccc(C(Nc2nccs2)c2ccc3cccnc3c2O)c1 (stereo unspecified) | inconclusive [inhibitor, full curve] | 
CC1=C(C(=O)Nc2ccc(C)cc2C)C(c2ccc(C)o2)NC(=S)N1 (stereo unspecified) | inconclusive [inhibitor, partial curve] | 
CC1CCCN(CCCNC(=O)c2ccc3c(c2)N(Cc2ccc(F)cc2)C(=O)c2ccccc2S3=O)C1 (stereo unspecified) | inconclusive [inhibitor, single point] | 
O=C(CN1CCN(Cc2cccc3ccccc23)CC1)NCCc1ccccc1 | inconclusive [inhibitor, partial curve] | 
CCOC(=O)c1cnc2c(OC)cccc2c1Nc1ccc2c(c1)OCCO2 | inconclusive [inhibitor, partial curve] | 
CCOC(=O)N1CCN(c2ccncc2S(=O)(=O)N2CCCCC2)CC1 |  | inactive: 19.6%
Cc1ccc(S(=O)(=O)c2nc(Nc3ccccc3C#N)sc2Cl)cc1 |  | inactive: -21.5%
COc1ccc(Cc2nnc(N/N=C/c3ccccc3O)[nH]c2=O)cc1OC | inconclusive [inhibitor, full curve] | 
Cc1c(O)ccc(C(=O)COc2ccccc2F)c1O |  | inactive: 2.08%
CC1(C)Cc2ccccc2-c2nnc(SCC(=O)N3CCc4ccccc43)n21 | inconclusive [inhibitor, single point] | 
CCOc1ccc(C(=O)NCC(=O)N2CCC3CCCCC3C2)cc1OCC (stereo unspecified) |  | inactive: -0.335%
CC(C)c1nc2cc(C(=O)N3CCNC(=O)C3c3ccc(F)cc3)ccc2o1 (stereo unspecified) | inconclusive [inhibitor, partial curve] | 
O=C(Nc1ccncc1)C1CCC(CNS(=O)(=O)c2cccc3nsnc23)CC1 (stereo unspecified) | inconclusive [inhibitor, single point] | 
CCCn1nnnc1NCc1cccn1C | inconclusive [inhibitor, single point] | 

Structure (SMILES) | Potency | activity change, negative = inhibition
CCOc1ccccc1C1c2cc3c(cc2OC(C)(N2CCCC2)C1C)OCO3 (stereo unspecified) | inconclusive [inhibitor, full curve] | 
Cc1cccc(N2CC(C(=O)NCC3COc4ccccc4O3)CC2=O)c1C (stereo unspecified) | inconclusive [inhibitor, partial curve] | 
Cc1[nH]c2ccc(C(=O)OC(C)C(=O)N(C)C3CCCCC3)cc2c1C (stereo unspecified) | inconclusive [inhibitor, single point] | 
Cn1cc(/C=C2\SC(=O)N(c3ccc(O)cc3)C2=O)c2ccccc21 | inconclusive [inhibitor, partial curve] | 
CN(C)S(=O)(=O)N1CCN(CC(=O)Nc2ccc(F)cc2)CC1 |  | inactive: 1.17%
COc1ccc(-c2cc(C(=O)N/N=C(\C)c3cccnc3)c3cc(C)ccc3n2)cc1OC | inconclusive [inhibitor, partial curve] | 
Cc1ccc(C(=O)OCC(=O)NCCN2C(=O)CSC2=O)cc1[N+](=O)[O-] |  | inactive: 4.28%
COc1ccccc1CNC(=O)COC(=O)c1ccc(C)c(S(=O)(=O)N2CCCCC2)c1 |  | inactive: -1.7%
COc1cccc(CC(=O)Nc2ccc(S(=O)(=O)N3CCOCC3)cc2)c1 | inconclusive [inhibitor, single point] | 
C#Cc1ccc([C@@H]2C=C(C(=O)N3CCN(Cc4ccc5c(c4)OCO5)CC3)O[C@H](OCC)[C@H]2CCCO)cc1 | inconclusive [inhibitor, single point] | 
COc1cccc(/C=C/c2ccc3ccccc3n2)c1OC(C)=O | inconclusive [inhibitor, single point] | 
Cc1cc(C)c(OCCOCCN(C)C)c(Br)c1 | inconclusive [inhibitor, partial curve] | 
O=C(CN1CCOCC1)Nc1ncc(Cc2cccc(Cl)c2)s1 |  | inactive: -3.75%
O=C(NCc1ccc(-c2nc3ccccc3s2)cc1)c1cc2ccccc2o1 |  | inactive: 1.1%
COCCCn1c(O)c(/C=C2\N=C(C#N)C(=Nc3ccc(C)cc3)O2)sc1=S | inconclusive [inhibitor, single point] | 
N/C(Cc1cccc2ccccc12)=N\OC(=O)c1cccs1 |  | inactive: 5.99%
O=c1c([N+](=O)[O-])cccn1Cc1ccc(F)cc1Cl | inconclusive [inhibitor, single point] | 
CCCCCn1c(=O)c(C(=O)Nc2cc(C)ccn2)c(O)c2ccccc21 | inconclusive [inhibitor, single point] | 
COc1ccc(-c2coc3cc(O[C@@H]4O[C@H](CO)[C@@H](O)[C@H](O)[C@H]4O)c(OC)cc3c2=O)cc1 |  | inactive: 8.36%
COc1ccc(N2CCN(C(=S)NC(=O)c3cccs3)CC2)c([N+](=O)[O-])c1 |  | inactive: -5.22%
C=CCN(C#N)c1nc(OC)nc(N2CCCC2)n1 | inconclusive [inhibitor, single point] | 
Cn1c(SCc2ccc(Br)cc2)nnc1-c1cccs1 | inconclusive [inhibitor, single point] | 
O=C(c1ccc(Cl)cc1)N1CCc2c([nH]c3ccccc23)C1C(F)(F)F (stereo unspecified) | inconclusive [inhibitor, single point] | 
